Assay results published in the supplement of paper PMC12632987.
In all, about 4,500 sequences were measured (“median log2 fold change of GCK-ALFA target abundance (FLAG IP / Myc IP barcode read proportion)”: median about 0.078, lowest 2% from about -0.6 on). This is one part of the list.

B1: GBRAP_184_5358 (protein)
chain: EVRHLSVTVETKEEAVEKLAEAREEIRASGLPTVLVVELKNADLETVETVMELLAELREEGLIERGIVVVDDDRSEEEIDKMVELADRYGVDLVVAIPEE
B2: GBRAP_160_4717 (protein)
chain: SETAEKLKEYVDEEFDEAEELMKGESIEQRAIILEGTVGEIIMELFENPDASDELIDEVLKIGDEAVATLKANPDLSDEEIEELLDEARDKMKEAIDKHL
B3: GBRAP_11_2901 (protein)
chain: KKEKLKELAKLLKKLIELLKKLLKEGPENEELLEEALKVAEKALELAKEVLDESDVELAKELVRLLKKAKEDPENAVEYLKQALAIAQVLLGQVLLEIEE
B4: GBRAP_128_3451 (protein)
chain: SVEEAAERARRVMEAMKAADLEEARALARELAAWLGTLSLEEAEAAMETLEELAPELSAEKLDILADVLREARPQLSPEKARLAADVEVELLNEAEEKEE
B5: GBRAP_128_3381 (protein)
chain: IDEEKLEKVKKLVDEMIKASVEEVRKLTREFIEFLTTLSPEEQEAAVEILEEKLPEFTAEQLEVIADVIEEAMPSLDPYLANLLAGLRVEALNLAVEKEE
B6: GBRAP_52_5843 (protein)
chain: MEEKARKLAEELVKLAKAGDEAGLKAKIAEIVATLTEEEVMKVLKELAKLAATADPETAEVIWKVAEALADAAAAAGFDEMELSAGLADVGAAVYKALQK
B7: GBRAP_52_6268 (protein)
chain: MEEEAEKIAKEFIEVTLTKSEEEVKEFAKKVVETKSQELIAKILKIVVEKSKELNAEELEKLLEAFLILEDELEKAGKDTLPAEDAAAELAKLHMEKLKE
B8: GBRAP_52_6230 (protein)
chain: MEEEMEKLVKEMIELVKKGDLEGARKLAEKIAEELNDEELEIFIEALAKLAEESPLEERPYFEKLAEIMAEVFEEKGKDEVLIDLLEARVAAALYKREQK
B9: GBRAP_139_3696 (protein)
chain: SELEKLIEKARELTKKTKEDPEKSIEEIVELISSVSEEEAEKLVKAIAEELSKLPLDEAEKLADLLIEKAEEKIKDEDKVRIVEAELNGMLARKAYEEEL
B10: GBRAP_160_4790 (protein)
chain: MERVEEVARRFREALEEALKLAEGESNEERVAIFDVELGSAILELEEEGLLNDEEEEVAVEVRDELVARVRANPDLTPEELRALAEEAVRRLRERLKELE
B11: GBRAP_160_4834 (protein)
chain: KEKVEEAKKYIDEEFEKIIEMMKGETTEQRAAIVRVGIGEIIMYLREKGVATDELEDFLIEEEDRLVATILANPDLTDEELKALIEETRKRIKEALEKES
B12: GBRAP_78_6712 (protein)
chain: KLEELLDKAIETLNEAARLALELPEERSNEILDLLVEASNLLEEVKEPGVSKEEALKKLKEAEKLLKKALELLGEDDKELRKKVEEALKLVKKAIEELKK
B13: GBRAP_139_3723 (protein)
chain: AEKEEAIKKAVELVKKYKDDLEKLAEELAKLIASVDDETALAIARAAAEALKDYSWEKWEELIELLEKELKKLGLDEDRILAIAGEMEAVAAQHLIEKEK
B14: GBRAP_57_6471 (protein)
chain: EERLKKVREHAEAALKLIEAGAPTEEVLAEIAKALEELSEETLRDILLIADPSAEYDVSKEEARARLLALARAYLEAGDTEAVRRLVRLIEGQAEMDATE
B15: GBRAP_43_5762 (protein)
chain: SKELVEGAIDFALLALEEPEISEETKLKAIKAALGLAADEGYFDKEEVLELIRAAGKSLSKEELEKLAAFLKELAKKYPELAETLKEALAILEKAIAAKK
B16: GBRAP_160_4682 (protein)
chain: SEKVEKAKKFIEEEFDEVLSLYDEMTPEQLAAAVRVAFGEIILELEELGLLTEEVEKVILEEEEKIVKTILENPNITKEEFKKLLEEAKKKIVEELEKAE
B17: GBRAP_160_4314 (protein)
chain: MEEIEELKKEIEELVEEAKEMIKGQSAEERRTIARVTLGDILLAVEENPAVSDETEEKVAEIVDAAEARLDANPDLTEEEVKALLEETREKILELLESEL
B18: GBRAP_160_4344 (protein)
chain: SEEKEKLLKFVDEEFEEAIELIKGESIEQRKVIISGTFGEILMELSESPIISDELEDEVREIEDELLEYLDKNPDLSEEEIKELIKEAREKVKEAIEKHT
B19: GBRAP_78_6703 (protein)
chain: KIEELIDEAIELVNKAAKLLVNEKTELANDLLGLLVDASTLLWEAEEKGGDLKLLKEALKKLEEALKLAKKLDIPNKEEIIKLLKEAIEKVKEAIKLKEK
B20: GBRAP_52_6025 (protein)
chain: MAARIQAVVDEALALVKAGDLAAARALLAAAVASMNDEEVRLFVDALAARAAAAAPEDHDAVWTLTELAAAAMEEAGKDEALADDLEARTAAALYEAEQR
B21: GBRAP_52_5866 (protein)
chain: MRERLREALAEALALVKAGDLAAARALAAELVASISEEEAELLIEVAAEYAATLPREDLDAAWTLMEILAEELEAAGFPEELVTLFEGEVGSAIAKVEAA
B22: GBRAP_159_3956 (protein)
chain: MEEVLAALRERLEALGASEAVIRAAVEAVELAFEGEDAGSIAAHLLHMATVLGASTEEILVTLEALPEDLRVEVAELLAEMFEELGDEEMAAALRAFLAA
B23: GBRAP_83_6974 (protein)
chain: KEEIVVAAPADRVEEAVEIAIDLSKNYGYKVTLEVITTPEEKEKVLEAVERLMKEVKDIEIEVILEGATKEEAEELEKRLKEIAKKLGVNAEITVELVEP
B24: GBRAP_11_2809 (protein)
chain: KKEALEKALELAKKAAETVKKLLKEGVDNKELQEEIKKLLEELKKLAEKYLDKGSQKLVEIAEELWKEALEDPENAEEYLKQLEATLRVLAGNILLEIEE
B25: GBRAP_184_5050 (protein)
chain: KIKEEVIEANNLEELKKKLEELKEKMKNFKGELIVHVKLPEFTLEMVEEILNTLKEILDKGYASSITVGLDGKMSEEVVDFALEKADKAGIKVVLALEEE
B26: GBRAP_52_6152 (protein)
chain: AAARAAEAARAFVAAVRAGDEARAEAIMREIAATFDDEEIALFLDEVARLVAGLSPEDRERVVEAVLRFEDIAEAAGHDEELLSYHTARVAAAAYAALQA
B27: GBRAP_160_4199 (protein)
chain: SEKIEKIIKELREETERVIAAIPELSREEVANFAEVEFGSVLMEAVELGVENDEIEDTIADAADEIKKFLAENQNASNEEIAAGIREITEKAIEEIKKIA
B28: GBRAP_137_3633 (protein)
chain: MKVVIETKTYGDVVEIKVTVEDPEKAEEAKELLLDIAHEKGALAVSLEIKEDGTLEAVIWVPKEKAEELIEAIVKAFQTEFGADVTIKDLDTGEVKEYKA
B29: GBRAP_160_4132 (protein)
chain: KEELEALIKEIKETTEEAIELIEGESVENAKVIAKVALGDILLLVDSNEAVSEEVEDKIGEIVDEAEKTLDENPNLSVEEIKKLLKETAEKIVEILEAER

Target: GABARAP, O95166
Assay: median log2 fold change of GCK-ALFA target abundance (FLAG IP / Myc IP barcode read proportion) (log2 ratio); each designed protein is fused to an ALFA-tag nanobody in HEK293 cells to bring the named protein to FLAG-tagged glucokinase (GCK); Myc marks an untargeted standard; higher = target protein stabilised (more abundant)
Settings: target protein: 3xFLAG-MCP-GCK-ALFA reporter; HEK293 landing pad (RPLP)
How it was run: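 An ALFA-nanobody-fused binder library was recombined into HEK293 landing-pad cells and induced with 2 μg mL^−1 doxycycline. Cells were transfected with a plasmid expressing a FLAG-tagged target and a Myc-tagged standard. After 48 h, lysates underwent anti-FLAG and anti-Myc immunoprecipitation, and circular RNA barcodes were reverse transcribed, amplified and sequenced. Target abundance is the per-binder median log2 ratio of FLAG to Myc barcode read proportions. Barcodes needed ≥10^−7 proportion in both replicates, binders ≥3 barcodes per replicate, and a 10^−6 pseudocount was added; the two replicates were pooled.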

GABARAP, O95166, sequence (O95166 whole entry, the tested form may be a part): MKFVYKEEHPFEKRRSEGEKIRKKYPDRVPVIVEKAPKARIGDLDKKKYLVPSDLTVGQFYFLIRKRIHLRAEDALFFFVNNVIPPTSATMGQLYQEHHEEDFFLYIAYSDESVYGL

Row | Binder | median log2 fold change
1 | B1 | -0.0422
2 | B2 | -0.000956
3 | B3 | 0.36
4 | B4 | 0.195
5 | B5 | 0.0613
6 | B6 | 0.0998
7 | B7 | 0.181
8 | B8 | 0.244
9 | B9 | 0.209
10 | B10 | 0.0641
11 | B11 | 0.138
12 | B12 | 0.121
13 | B13 | 0.0702
14 | B14 | 0.303
15 | B15 | -0.0634
16 | B16 | -0.333
17 | B17 | -0.298
18 | B18 | -0.232
19 | B19 | 0.343
20 | B20 | 0.19
21 | B21 | -0.0175
22 | B22 | 0.234
23 | B23 | -0.00525
24 | B24 | 0.15
25 | B25 | 0.0158
26 | B26 | 0.0915
27 | B27 | -0.137
28 | B28 | -0.216
29 | B29 | -0.481
